According to PubChem BioAssay AID445 (National Center for Advancing Translational Sciences (NCATS), 2006):
Among all 110,000 compounds or so, about 40 (0.04%) were called active. Inconclusive means that the source gave no clear call. Such entries were picked first, then a sample of the others. The call rests on the fitted dose curve; in most records, active means well fitted curve in the direction sought with a large enough effect in the signal ratio (not every such curve was filed as active); inconclusive means small, poorly fitted or top-dose-only effect, or a change in a side signal; inactive means flat fitted curve, though single readings scatter; the % refers to the signal ratio. Potencies of inconclusive entries are doubtful fits and often do not repeat.

Assay: IkB Signaling;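 on IkBa stabilization activation: 0% = basal untreated cells and 100% = reference inhibitor full response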
Settings: ABC-DLBCL IkBa-CBG/CBR dual luciferase ratio (green luciferase fused to IkBa over red control in OCI-Ly3 lymphoma cells), 4 h; IkBa stabilization activation: at 57.1 µM (top of the series), scaled: untreated 0%, proteasome inhibitor 100% unless noted
How it was run: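 Curves were fitted separately to fusion (green), unfused (red) and ratio luminescence, then classed by r2, magnitude and activity. Cells: OCI-Ly3, 4 h compound plus doxycycline at 37C; 10 uM MG-132 defined full response.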
Potency means the concentration at half of the fitted maximal effect.

SMILES	IkBa stabilization activation	Potency
CCC(Sc1nnc2c(n1)[nH]c1ccccc12)C(=O)Nc1ccccc1OC (stereo unspecified)	inconclusive: -4.63% [signal inhibitor]	
CCc1ccccc1S(=O)(=O)Cc1ccc(C(=O)NCCc2ccc(C)cc2)o1	inconclusive: 2.19% [signal inhibitor]	
COc1ccc(NC(=O)c2ncn(-c3ccccc3)n2)cc1Cl	inconclusive: 10.2% [signal inhibitor]	
CCOC(=O)c1c(-c2ccccc2)oc2ccc(O)c(CN3CCOCC3)c12	inconclusive: 1.12% [signal inhibitor]	
Cc1cccc2sc(NC(=O)CCNS(=O)(=O)c3cccs3)nc12	inconclusive: 9.36% [signal inhibitor]	
CN(C)c1ccc(C(CNC(=O)c2ccccc2Cl)N2CCCC2)cc1 (stereo unspecified)		inconclusive: 20 µM [signal inhibitor]
Cc1ccc(-c2ccc(SCC(=O)Nc3nonc3C)nn2)cc1	inactive: 1.31%	
Cc1cccc(-c2nc(CSCC(=O)N3CCN(c4ccccn4)CC3)c(C)o2)c1	inconclusive: 4.93% [signal inhibitor]	
CN1C(=O)Cc2cc(S(=O)(=O)NCc3ccc(Cl)cc3)ccc21	inactive: 3.09%	
COc1ccc(N2CCN(CCCNC(=O)c3cnn(-c4ccc(C)cc4)c3-n3cccc3)CC2)cc1	inconclusive: -5.62% [signal inhibitor]	
Cc1ccc2nc(NC(=O)C3CCCN(S(=O)(=O)c4cnc[nH]4)C3)sc2c1 (stereo unspecified)	inconclusive: 15.4% [signal inhibitor]	
CC(=O)N1c2ccccc2NC2=C(C(=O)CCC2)C1c1cccnc1 (stereo unspecified)	inactive: -5.37%	
Cc1ccccc1CSc1nc2c(sc3ccccc32)c(=O)n1CCCC(=O)NCCCOC(C)C	inconclusive: 2.78% [signal inhibitor]	
CS(=O)(=O)CC[C@@H](C(=O)NCCc1ccccc1)N1Cc2ccccc2C1=O	inactive: -0.717%	
Cc1cccc(OCC(=O)N2CCC(c3nc4ccccc4o3)CC2)c1C	inconclusive: 0.715% [signal inhibitor]	
CN(c1nnc(NC(=O)Nc2ccccc2C(F)(F)F)s1)C1CCCCC1	inactive: -1.6%	
COCc1cc(C)nc2c1C(=O)NC(c1ccc(NC(C)=O)cc1)N2Cc1ccccc1 (stereo unspecified)	inconclusive: 2.44% [signal inhibitor]	
O=C(Nc1ccccc1O)c1cc(S(=O)(=O)N2CCOCC2)ccc1Cl	inactive: -0.562%	
COc1ccc(/C=C/c2nc(C#N)c(NCc3ccc(C)cc3)o2)cc1OC	inconclusive: 0.537% [signal inhibitor]	
Cc1c2cnn(CC(=O)NC(C)C)c(=O)c2c(C)n1Cc1cccc(Cl)c1	inactive: 1.63%	
Cc1ccc(NC(=O)N2CCC3(CC2)Oc2ccccc2C(=O)N3Cc2ccc(F)cc2)cc1	inconclusive: 1.51% [signal inhibitor]	
CC(Oc1ccccc1)C(=O)Nc1cccc(-c2cn3cccnc3n2)c1 (stereo unspecified)	inactive: -2.33%	
CCNC(=O)c1ccc2c(c1)sc1nc(-c3cccc(OC)c3)cn12	inconclusive: 3.73% [signal inhibitor]	
O=C1Nc2ccc(S(=O)(=O)NCc3ccco3)c3cccc1c23	inconclusive: 5.76% [signal activator]	

SMILES	IkBa stabilization activation	Potency
Cc1nc2ccccc2c2oc(C(=O)NC3CC3)cc12	inactive: -6.97%	
O=C(Cn1cc(SCc2cccc(Cl)c2)c2ccccc21)N1CCCCC1	inconclusive: 7.56% [signal inhibitor]	
CCOc1ccc(NC(=O)CC2C(=O)N(c3ccccc3)C(=O)N2CCc2sccc2C)cc1 (stereo unspecified)	inconclusive: 0.182% [signal inhibitor]	
O=c1c(CCc2ccccc2)nc2cnc(N3CCNCC3)nc2n1Cc1ccc(F)cc1	inactive: -2.53% [at 11.4 µM, scaled: untreated 0%, proteasome inhibitor 100%]	
COc1ccc(S(=O)(=O)c2c(C(=O)c3ccc(C)c(C)c3)cnc3ccc(C)cc23)cc1	inconclusive: 14.4% [signal inhibitor]	
CCN(CC)CCCN1C(=O)C(O)=C(C(=O)c2ccco2)C1c1ccc(C)o1 (stereo unspecified)	inactive: 0.914%	
COc1cccc(/C=C/c2nc(C#N)c(NC3CCCCC3)o2)c1	inconclusive: 14.2% [signal inhibitor]	
c1ccc(-n2cnc3cc(NCc4ccncc4)ccc32)cc1	inactive: 1.98%	
CSc1ccc(CCNC(=O)Cn2c(C)c3cnn(-c4ccccc4)c(=O)c3c2C)cc1	inconclusive: 0.725% [signal inhibitor]	
Cc1ccc(-n2nc(CO)c(C(=O)NCCC(C)C)n2)cc1C	inconclusive: 0.482% [signal inhibitor]	
O=C(NCc1ccco1)c1cc2sccc2n1Cc1ccccc1	inconclusive: 5.8% [signal inhibitor]	
Cc1ccc(CNC(=O)c2ccc(Cn3c(SCc4ccc(F)cc4)nc4cccnc43)cc2)o1	inconclusive: 6.21% [signal inhibitor]	
CCCN(C(=O)CCc1nc(-c2ccc(C)cc2)no1)c1ccc(OCC)cc1	inconclusive: 12.9% [signal inhibitor]	
O=C(Cn1cc2c(n1)CCCC2)N1CCCc2ccccc21	inactive: 0.657%	
CN(C)c1ccc(C(=N)c2ccc(N(C)C)cc2)cc1	inconclusive: 3.63% [signal inhibitor]	
COc1ccc2c(c1)-c1nc(NC(=O)c3cccc(Br)c3)sc1CC2		inconclusive: 12.6 µM [signal inhibitor, partial curve]
Cc1ccc(NC(=O)CN2C(=O)c3cccnc3Sc3ccccc32)c(Br)c1	inconclusive: 0.934% [signal inhibitor]	
O=C(C1COc2ccccc2O1)N(Cc1cccnc1)c1nc2c(F)cccc2s1 (stereo unspecified)	inconclusive: 3.83% [signal inhibitor]	
CC1CCN(S(=O)(=O)c2cc(C(=O)N3CCN(c4cccc(Cl)c4)CC3)n(C)c2)CC1	inconclusive: 4.18% [signal inhibitor]	
COc1ccc(N(CC(=O)N2CCc3ccccc3C2)S(=O)(=O)c2ccccc2)cc1	inconclusive: 5.63% [signal inhibitor]	
COc1ccccc1C1C(C(=O)N2CCCCC2)=C(C)Nc2nc3ccccc3n21 (stereo unspecified)	inconclusive: 2.73% [signal inhibitor]	
CCOC(=O)c1nnn(C(CC)C(=O)Nc2ccc(F)cc2)c1C(=O)OCC (stereo unspecified)	inconclusive: 1.19% [signal inhibitor]	
CCCn1c(=O)c(C(=O)NCc2ccncc2)c(O)c2ccccc21	inactive: 1.12%	
CNc1nc(-c2ccc(N(C)C)cc2)nc2ccccc12	inactive: -7.24% [at 11.4 µM, scaled: untreated 0%, proteasome inhibitor 100%]	

SMILES	IkBa stabilization activation	Potency
Cc1cccc(-c2noc(-c3ccccc3OCC(=O)Nc3ccccc3[N+](=O)[O-])n2)c1	inconclusive: 1.85% [signal inhibitor]	
CCOC(=O)c1[nH]cnc1C(=O)Nc1ccccn1	inactive: -1.18%	
CCOC(=O)c1ccc(NC(=O)C(C)Sc2nc(=O)cc(N)n2CCc2ccccc2)cc1 (stereo unspecified)	inconclusive: 9.02% [signal inhibitor]	
COc1ccc(C(=O)CN2C(=O)c3ccccc3C2=O)c(OC)c1C	inactive: -1.76%	
O=C(Nc1scc(-c2cccs2)c1C(=O)O)c1cccs1		inconclusive: 3.98 µM [signal inhibitor, full curve]
CCn1c(=O)c(C(=O)Nc2ccccc2S(N)(=O)=O)c(O)c2ccccc21		inconclusive: 0.631 µM [signal inhibitor, full curve]
CSc1nc(N2CCN(CCO)CC2)c2sc3nc(-c4ccco4)c4c(c3c2n1)CCC4	inconclusive: 1.01% [signal inhibitor]	
COc1cc(C(=O)N2CCN(c3cc(Cl)ccc3Cl)CC2)cc(OC)c1OC	inconclusive: 11.5% [signal activator]	
O=C(NCc1ccccc1Cl)c1c2c(nc3ccccc13)C(=O)N(C1CCCCC1)C2		inconclusive: 39.8 µM [signal inhibitor]
CCCCC(=O)Nc1ccc(OCc2cc(=O)n3c(C)csc3n2)cc1	inactive: 0.648%	
CCN(CC)c1ccc(C2C(C(=O)Nc3ccccc3C)=C(C)Nc3ncnn32)cc1 (stereo unspecified)	inconclusive: 1.59% [signal inhibitor]	
O=c1[nH]c2ccc(S(=O)(=O)N3CCN(c4ccccc4F)CC3)cc2s1	inconclusive: 11.2% [signal inhibitor]	
COC(=O)CCCCCn1c(-c2ccccc2)cn2c3c(=O)n(C)c(=O)n(C)c3nc12	inconclusive: 5.8% [signal inhibitor]	
CCn1c2ccccc2c2nc3cc(OC)c(OC)cc3nc21	inactive: -4.5%	
CCN(CC)S(=O)(=O)c1ccc2oc(C(=O)N3CCCCCC3)c(C)c2c1	inconclusive: 0.505% [signal inhibitor]	
Cc1ccc(C)c(N2CCN(CCCNC(=O)c3cnn(-c4ccccc4)c3C3CCN(C(=O)OC(C)(C)C)CC3)CC2)c1	inconclusive: -7.41% [signal inhibitor]	
CC(C)CC1N=C2c3ccccc3N=C(SCc3cc(=O)n4ccccc4n3)N2C1=O (stereo unspecified)	inactive: -1.94%	
CCN(Cc1ccccc1)Cc1c(O)ccc2c(=O)c(-c3ccc(Cl)cc3)c(C(F)(F)F)oc12	inactive: 8.07%	
Cc1ccc2nc(-c3cccc(S(=O)(=O)N(C)C)c3)cn2c1	inactive: -2.99%	
Cn1c(SCC(=O)Nc2sc3c(c2C#N)CCC3)nnc1C1COc2ccccc2O1 (stereo unspecified)	inconclusive: 0.895% [signal inhibitor]	
CCn1c(CSc2nc3ccccc3s2)nc2ccccc21	inconclusive: -5.66% [signal inhibitor]	
CC(C)n1c(SCC(N)=O)nc2c1c(=O)[nH]c(=O)n2C	inactive: -2.25%	
O=C1CS(=O)(=O)C2(C(=O)N(Cc3ccccc3)c3ccccc32)N1c1ccc(F)c(Cl)c1 (stereo unspecified)	inconclusive: -1.87% [signal inhibitor]	
